Assay results taken from PubChem BioAssay AID1645887 (National Center for Advancing Translational Sciences (NCATS), 2021).
“And” between values parts separate entries of the source, which are not always exact repeats. Equal entries are not always repeated. Screen size: about 16,000 compounds; about 40 (0.2%) were called active. About 1% were inconclusive and are not listed. Calls follow the shape of the dose curve; as a rule, active = well fitted activation curve with a large enough effect; inconclusive = small, poorly fitted or top-dose-only effect, or another doubt; inactive = no such curve, though single readings can be large or run the other way. Some of the results follow.

target: Rap guanine nucleotide exchange factor 4 (Homo sapiens) (UniProt Q8WZA2); assay: Validation qHTS for agonist of cAMP-regulated guanine nucleotide exchange factor 4 (EPAC2); details: EPAC2 Rap1B BODIPY-GDP exchange, fluorescence; activation: hits give high values;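 also: exchange makes BODIPY-GDP fluorescence drop when released from Rap1B; series mostly up to about 150 µM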
Chain of UniProt Q8WZA2 (Q8WZA2 whole entry, looked up): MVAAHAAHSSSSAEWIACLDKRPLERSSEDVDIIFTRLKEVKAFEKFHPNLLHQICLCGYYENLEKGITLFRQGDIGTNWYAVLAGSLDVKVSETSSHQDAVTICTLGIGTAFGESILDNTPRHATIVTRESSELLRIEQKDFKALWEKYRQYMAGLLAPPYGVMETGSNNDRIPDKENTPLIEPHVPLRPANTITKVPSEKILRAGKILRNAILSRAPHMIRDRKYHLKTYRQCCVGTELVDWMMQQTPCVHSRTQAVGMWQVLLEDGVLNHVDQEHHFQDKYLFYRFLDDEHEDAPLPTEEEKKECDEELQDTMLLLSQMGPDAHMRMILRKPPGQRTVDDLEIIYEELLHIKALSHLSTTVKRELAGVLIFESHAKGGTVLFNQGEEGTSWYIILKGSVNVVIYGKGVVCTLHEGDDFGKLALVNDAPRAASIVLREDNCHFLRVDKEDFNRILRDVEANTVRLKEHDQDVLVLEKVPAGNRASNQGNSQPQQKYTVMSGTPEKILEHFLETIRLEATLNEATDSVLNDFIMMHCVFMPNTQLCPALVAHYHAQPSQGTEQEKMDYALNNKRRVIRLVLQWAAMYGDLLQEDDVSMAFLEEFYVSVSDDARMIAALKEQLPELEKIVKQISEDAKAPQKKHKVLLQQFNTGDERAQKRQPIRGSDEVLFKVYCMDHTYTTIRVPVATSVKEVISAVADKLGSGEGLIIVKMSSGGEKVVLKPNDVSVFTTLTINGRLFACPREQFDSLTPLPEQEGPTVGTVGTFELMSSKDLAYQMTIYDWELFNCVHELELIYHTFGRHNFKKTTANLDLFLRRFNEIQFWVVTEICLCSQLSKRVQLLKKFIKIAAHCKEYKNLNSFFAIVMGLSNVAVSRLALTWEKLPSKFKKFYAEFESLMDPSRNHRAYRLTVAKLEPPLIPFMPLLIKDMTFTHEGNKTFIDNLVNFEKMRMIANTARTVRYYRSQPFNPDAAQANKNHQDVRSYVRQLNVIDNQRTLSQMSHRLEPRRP
Summary of the method: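 Fluorescent exchange assay: 100 nM EPAC2 with 250 nM RAP1B-BODIPY-GDP and 50 uM GDP; compound added, 5 min at room temperature, then read (ex 480/em 540 nm) every 5 min for 30 min. Normalized to 6.5 mM cAMP agonist control.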
% is scaled to controls: 0 for no effect and ±100 for the full control effect.

| Structure (SMILES) | activation |
| --- | --- |
| O=C(O)CC[N+](=O)[O-] | inactive: -4.45% and inactive: -23.2% |
| O=C1NCN(c2ccccc2)C12CCN(CCCOc1ccc(F)cc1)CC2 | inactive: -17% and inactive: -5.87% and inactive: -9.91% |
| Oc1ccc2c3c1O[C@H]1[C@@H](O)CC[C@@]4(O)[C@@H](C2)N(CC2CCC2)CC[C@]314 | inactive: -12.5% |
| c1ccc([C@H]2CNCc3ccccc32)cc1 | inactive: -22.9% |
| C/C=C/c1ccc2c(c1)OCO2 | inactive: -18.4% and inactive: 6.73% |
| OCc1cnc[nH]1 | inactive: -27.2% |
| C[C@@H]1O[C@@H](O[C@H]2C[C@@H](O)[C@]3(CO)[C@@H]4C(CC[C@]3(O)C2)[C@@]2(O)CC[C@H]([C@@H]3COC(=O)C3)[C@@]2(C)C[C@H]4O)[C@H](O)[C@H](O)[C@H]1O (some centres not stated) | inactive: -4.36% |
| Clc1ccccc1-c1cncnc1NCCc1cnc[nH]1 | inactive: -14.4% |
| CCCN(C/C=C\I)[C@@H]1CCc2ccc(O)cc2C1 | inactive: -9.11% |
| CC[C@@]1(O)CC(O)c2c(cc3c(c2O)C(=O)c2c(O)ccc(O)c2C3=O)C1C(=O)OC (some centres not stated) | inactive: -3.1% |
| CCCCCCCCCC(=O)O[C@H]1CC[C@H]2[C@@H]3CCC4=CC(=O)CC[C@@H]4[C@H]3CC[C@]12C | inactive: -3.82% |
| O=C(NCNC(=O)NC1C(=O)NC(=O)N1CO)NC1C(=O)NC(=O)N1CO (configuration not stated) | inactive: -26.7% |
| CC(=O)O[C@H]1CC[C@@]2(C)C(=CC[C@@H]3[C@@H]2CC[C@]2(C)C(=O)CC[C@@H]32)C1 | inactive: -16.2% |
| CC1CCC2C(C)C(=O)OC3OC4(C)CCC1C32OO4 (configuration not stated) | inactive: -2.54% |
| CCN[C@H](C)Cc1cccc(C(F)(F)F)c1 | inactive: 3.32% |
| O=C1C2CC=CCC2C(=O)N1SC(Cl)(Cl)Cl (configuration not stated) | inactive: -12.1% |
| O=C(Oc1ccccc1)N1CCC2(CC1)CN(Cc1ccncc1)C2 | inactive: 2.79% |
| N#CC(C#N)=Cc1cc(O)c(O)c(O)c1 | inactive: -6.63% and inactive: 9.37% |
| CCCCCCCCCCCCCCCC[N+](C)(C)C | inactive: -8.8% and inactive: 10.7% |
| O=[N+]([O-])c1ccccc1 | inactive: -24.9% |
| C[C@@H]1O[C@@H](O[C@H]2CC[C@]3(C=O)C4CC[C@]5(C)[C@@H](C6=CC(=O)OC6)CC[C@]5(O)[C@@H]4CC[C@]3(O)C2)[C@H](O)[C@H](O)[C@H]1O (some centres not stated) | inactive: -14.2% |
| CN1C[C@H](CNC(=O)OCc2ccccc2)C[C@@H]2c3cccc4c3c(cn4C)C[C@H]21 | inactive: 18.4% and inactive: 17.9% and inactive: 1.47% |
| CC(C)(O)C1O[C@H]2CC[C@@]3(C)[C@@](O)(CC[C@H]4Cc5c([nH]c6ccccc56)[C@@]43C)C2=CC1=O (some centres not stated) | inactive: 14.4% and inactive: -7.16% and inactive: 7.56% |
| CCN1C[C@@]2(COC)C3[C@@H](OC)C4[C@@H]1C3([C@@H]1C[C@]3(O)[C@H](OC(=O)c5ccccc5)[C@@H]1[C@]4(OC(C)=O)[C@@H](O)[C@@H]3OC)[C@H](OC)C[C@H]2O | inactive: -20.7% |
| CC(=O)N1CC[N+](C)(C)CC1 | inactive: 3.87% and inactive: 2.54% |
| O=c1ccc2cc(OC3OC(CO)C(O)C(O)C3O)c(O)cc2o1 (configuration not stated) | inactive: -5.75% |

| Structure (SMILES) | activation |
| --- | --- |
| COc1ccc2c(c1)[C@@]13CCCC[C@H]1[C@@H](C2)NCC3 | inactive: -31.3% |
| CC[C@@H](CO)NC(=O)[C@@H]1C=C2c3cccc4c3c(cn4C)C[C@H]2N(C)C1 | inactive: 16.6% and inactive: -4.64% |
| COc1ccc(NC(=O)N2CC[C@@]3(CCCN(C(=O)Oc4ccccc4)C3)C2)cc1 | inactive: -22.6% |
| NC(CO)Cc1ccccc1 (configuration not stated) | inactive: -4.92% |
| N#Cc1cccc(NC(=O)N2CC[C@@]3(CCCN(C(=O)Oc4ccccc4)C3)C2)c1 | inactive: -18% |
| CCN1C[C@]2(C)CC[C@H](OC)[C@]34C5C[C@@H]6CC[C@@](O)(C5C(=O)O6)C(C13)[C@@H](OC(=O)c1ccccc1)C24 | inactive: -23.1% |
| c1ccc(CN2CCNCC2)cc1 | inactive: 7.06% |
| CN1C(=O)CN=C(c2ccccc2)c2cc(Cl)ccc21 | inactive: -3.58% |
| CC(=O)[C@@]1(O)CC[C@H]2[C@@H]3CCC4=CC(=O)CC[C@]4(C)C3(F)[C@@H](O)C[C@@]21C (some centres not stated) | inactive: -4.33% |
| Cc1cc([C@@H]2CCCN2C)on1 | inactive: 0.473% |
| C[C@]12CC[C@H](O)CC1=CC[C@@H]1[C@@H]2CC[C@]2(C)C(=O)CC[C@@H]12 | inactive: -10.2% |
| C/C=C(\C)C(=O)OC1CC(OC(C)=O)[C@@]2(C(=O)OC)COC3C2[C@@]12CO[C@](O)(C(=O)OC)C2[C@](C)(C12OC1(C)C1CC2OC2OC=C[C@]21O)C3O (some centres not stated) | inactive: -10.4% |
| CC(Cc1ccccc1)NCc1ccccc1Cl (configuration not stated) | inactive: 1.75% |
| N#CC(O[C@@H]1OC(COC2OC(CO)C(O)C(O)[C@@H]2O)C(O)C(O)C1O)c1ccccc1 (some centres not stated) | inactive: -2.56% |
| CC1(C)C(O)CC(O)[C@]2(C)C1CC(=O)[C@]1(C)C2CC[C@@]2(C)C(c3ccoc3)OC(=O)C3OC321 (some centres not stated) | inactive: 3.51% |
| COc1ccc2c(c1OC)CN1CCc3cc4c(cc3C1C2)OCO4 (configuration not stated) | inactive: 1.08% |
| CCCC(C)(COC(N)=O)COC(=O)NC1CC1 (configuration not stated) | inactive: -9.04% |
| O=C(Oc1ccccc1)N1CCC[C@@]2(CCN(C(c3ccccc3)c3ccccc3)C2)C1 | inactive: -10.4% |
| C[CH2][Hg][S]c1ccccc1C(=O)O | inactive: -10.5% |
| O=C1CC2OCC=C3CN4CC[C@@]56c7ccccc7N1C5C2C3CC46 (some centres not stated) | inactive: -3.28% |
| CCN(CC)C(=O)N[C@H]1C[C@@H]2c3cccc4[nH]cc(c34)C[C@H]2N(C)C1 | inactive: 19.8% |
| O=C(Oc1ccccc1)N1CCC2(CC1)CCN(C(c1ccccc1)c1ccccc1)CC2 | inactive: -17.1% |
| COP(=S)(OC)Oc1ccc(S(=O)(=O)N(C)C)cc1 | inactive: -7.33% |
| Cc1nnc2n1-c1sc(CCC(=O)N3CCOCC3)cc1C(c1ccccc1Cl)=NC2 | inactive: 6.73% and inactive: -6.07% |
| CC(N)[C@@H](O)c1ccccc1 (some centres not stated) | inactive: -6.76% |
| Oc1cc(Cl)c(Cl)cc1Cl | inactive: -24.8% |

| Structure (SMILES) | activation |
| --- | --- |
| CN(C)CCc1c[nH]c2ccccc12 | inactive: -6.43% |
| CC[N+]1(C)CCCC(OC(=O)C(O)(c2ccccc2)c2ccccc2)C1 (configuration not stated) | inactive: -6.45% |
| C/C=C(/C)C(=O)O[C@H]1C(C)=C2[C@H]([C@@H]1OC(=O)CCCCCCC)[C@@](C)(OC(C)=O)C[C@H](OC(=O)CCC)[C@@]1(O)[C@H]2OC(=O)[C@@]1(C)O | inactive: 8.82% and inactive: -105% |
| Cc1o[nH]c(=O)c1C[C@H](N)C(=O)O | inactive: -13.7% and inactive: -13.6% and inactive: 3.9% |
| Clc1ccc2c(c1)C(c1ccccc1)=NCc1nncn1-2 | inactive: 13.5% |
| CC(C)Nc1nc(Cl)nc(NC(C)C)n1 | inactive: -7.23% |
| c1ccc2c(c1)OCC(C1=NCCN1)O2 (configuration not stated) | inactive: -0.494% and inactive: -15.7% |
| CC1OC(O[C@@H]2C(O)CC(O[C@@H]3C(O)C[C@@H](OC4CC[C@]5(C)[C@H](CC[C@H]6[C@@H]5CC[C@]5(C)C(C7=CC(=O)OC7)C(O)C[C@@]65O)C4)OC3C)OC2C)CC(O)C1O (some centres not stated) | inactive: -13.2% |
| Nc1ccc([N+](=O)[O-])cc1 | inactive: -7.23% |
| CCCCSP(=O)(SCCCC)SCCCC | inactive: -5.02% |
| CC(C)C(O)(C(=O)OC[C@@H]1CC[N+]2([O-])CCCC12)C(C)O (some centres not stated) | inactive: -12.6% |
| O=S1OCC2C(CO1)C1(Cl)C(Cl)=C(Cl)C2(Cl)C1(Cl)Cl (configuration not stated) | inactive: -9.8% |
| N#Cc1c(Cl)c(Cl)c(Cl)c(C#N)c1Cl | inactive: -8.35% |
| CC1O[C@@H](OC2CC[C@@]3(C=O)C4CC[C@]5(C)C(C6=CC(=O)OC6)CC[C@@]5(O)C4CC[C@]3(O)C2)C(O)C(O)C1O (some centres not stated) | inactive: -5.51% |
| CCCN(CCC)[C@H]1CCc2c(F)ccc(O)c2C1 | inactive: -61.6% |
| CC1C(=O)OC2C(O)C34C5OC(=O)[C@@]3(OC3OC(=O)[C@H](O)[C@]34C(C(C)(C)C)C5O)[C@]12O (some centres not stated) | inactive: 4.49% |
| CCCC[N+]1(C)C2CC(OC(=O)[C@H](CO)c3ccccc3)CC1C1OC12 (some centres not stated) | inactive: -40.6% |
| c1ccc(C2CNCc3ccccc32)cc1 (configuration not stated) | inactive: 2.51% |
| CCCCCC[C@H]1C(=O)O[C@H](C)[C@H](NC(=O)c2cccc(NC=O)c2O)C(=O)O[C@@H](C)[C@@H]1OC(=O)CC(C)C | inactive: -36.4% |
| C=C(C)[C@H]1C2C(=O)O[C@H]1[C@H]1OC(=O)[C@@]34O[C@@H]3C[C@]2(O)[C@@]14C | inactive: 11% and inactive: 4.18% |
| CN(C)CCc1c[nH]c2cccc(O)c12 | inactive: 7.04% |
| N#Cc1ccc(CN2CCCC3(CCN(C(=O)Oc4ccccc4)CC3)C2)cc1 | inactive: 2.19% |
| O=c1ccc2cc(O[C@@H]3O[C@H](CO)[C@@H](O)[C@H](O)[C@H]3O)c(O)cc2o1 | inactive: -23.9% |
| COc1cc2c(cc1O)C[C@H]1c3c(cc(OC)c(O)c3-2)CCN1C | inactive: 10.8% |
| CC(C)NC(C)Cc1ccc(I)cc1 (configuration not stated) | inactive: -14.3% and inactive: -15.6% |
